{"source": "paper PMC4336329", "about": "(PLoS ONE, 2015)", "note": "The whole screen tested about 310,000 compounds, of which about 14,000 (4.5%) showed an effect of 50% or more. The effect is printed as a negative number. The list shows a part of the results.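 Also: peak tail current of the secondary pulse compared with the same well before compound.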"}
{"biological_target": "human ether-à-go-go-related gene (hERG) potassium channel (human, UniProt Q12809)", "sequence (Q12809 whole entry, looked up)": "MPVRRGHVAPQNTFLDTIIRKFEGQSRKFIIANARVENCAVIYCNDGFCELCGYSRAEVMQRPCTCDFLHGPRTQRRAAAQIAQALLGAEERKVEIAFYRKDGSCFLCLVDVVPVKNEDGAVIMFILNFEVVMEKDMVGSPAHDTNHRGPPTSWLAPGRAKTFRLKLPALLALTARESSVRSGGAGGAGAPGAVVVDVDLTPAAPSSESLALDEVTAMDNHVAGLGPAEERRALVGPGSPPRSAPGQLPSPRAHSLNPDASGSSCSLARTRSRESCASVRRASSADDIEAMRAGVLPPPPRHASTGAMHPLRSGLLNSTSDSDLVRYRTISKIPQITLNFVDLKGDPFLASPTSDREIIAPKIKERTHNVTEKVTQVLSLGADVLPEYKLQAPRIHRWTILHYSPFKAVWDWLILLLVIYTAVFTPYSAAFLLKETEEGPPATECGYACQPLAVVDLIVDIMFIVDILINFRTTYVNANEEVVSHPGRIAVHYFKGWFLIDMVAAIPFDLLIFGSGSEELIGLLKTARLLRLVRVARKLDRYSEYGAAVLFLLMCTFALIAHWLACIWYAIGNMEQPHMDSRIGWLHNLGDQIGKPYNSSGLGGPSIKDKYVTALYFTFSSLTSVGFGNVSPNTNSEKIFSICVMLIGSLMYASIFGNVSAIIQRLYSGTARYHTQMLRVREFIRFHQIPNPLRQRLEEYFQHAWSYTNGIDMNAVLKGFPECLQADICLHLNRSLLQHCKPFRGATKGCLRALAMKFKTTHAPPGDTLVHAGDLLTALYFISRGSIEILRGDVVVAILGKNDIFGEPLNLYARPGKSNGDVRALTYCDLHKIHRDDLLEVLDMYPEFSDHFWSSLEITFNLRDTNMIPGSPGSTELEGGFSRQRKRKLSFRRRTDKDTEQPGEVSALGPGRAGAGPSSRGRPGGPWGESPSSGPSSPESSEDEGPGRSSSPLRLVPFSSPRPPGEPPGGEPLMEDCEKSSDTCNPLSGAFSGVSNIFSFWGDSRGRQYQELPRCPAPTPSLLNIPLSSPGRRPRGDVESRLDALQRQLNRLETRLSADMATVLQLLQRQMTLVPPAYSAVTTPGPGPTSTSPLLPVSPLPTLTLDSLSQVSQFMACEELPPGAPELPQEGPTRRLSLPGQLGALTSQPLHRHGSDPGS", "experiment": "primary screen, population patch clamp on CHO cells stably expressing hERG", "units": {"hERG current change (%, negative = inhibition) at 10uM": "%"}}
{"smiles": "O=CNC(Cc1ccccc1)C(=O)O", "note": "(stereo not shown)", "hERG current change (%, negative = inhibition) at 10uM": 1.69}
{"smiles": "Cc1ccc(S(=O)(=O)N2CCN(C(=O)c3cc4c(C)nn(-c5ccccc5)c4s3)CC2)cc1", "hERG current change (%, negative = inhibition) at 10uM": -17.3}
{"smiles": "Cl.N=c1n(CCCOc2ccc(F)cc2)c2ccccc2n1CC(N)=O", "hERG current change (%, negative = inhibition) at 10uM": -41.6}
{"smiles": "N#C/C(=C\\c1ccccc1)C(=O)OCC(=O)N1CCCC1", "hERG current change (%, negative = inhibition) at 10uM": 15.6}
{"smiles": "Cc1ccc2cc(C(c3nnnn3Cc3ccccc3)N3CCc4ccccc43)c(=O)[nH]c2c1", "note": "(stereo not shown)", "hERG current change (%, negative = inhibition) at 10uM": -6.55}
{"smiles": "Nc1ccc(Br)cc1C(=O)c1ccccc1", "hERG current change (%, negative = inhibition) at 10uM": -0.531}
{"smiles": "COc1cccc(-c2noc(C(C)n3nc(C)c([N+](=O)[O-])c3C)n2)c1", "note": "(stereo not shown)", "hERG current change (%, negative = inhibition) at 10uM": -20.1}
{"smiles": "O=C(c1ccc(CNc2c(N3CCCC3)c(=O)c2=O)cc1)N1CCc2ccccc2C1", "hERG current change (%, negative = inhibition) at 10uM": -10}
{"smiles": "Cn1ccc(C(=O)N/N=C/c2ccccc2[N+](=O)[O-])n1", "hERG current change (%, negative = inhibition) at 10uM": 16.5}
{"smiles": "Cc1ccccc1C(=O)NC1CCS(=O)(=O)C1", "note": "(stereo not shown)", "hERG current change (%, negative = inhibition) at 10uM": 15.5}
{"smiles": "Cc1ccccc1C(=O)NCC(=O)OC(C)C(=O)NC(C)CCc1ccccc1", "note": "(stereo not shown)", "hERG current change (%, negative = inhibition) at 10uM": -6.06}
{"smiles": "CCC(=O)N(Cc1cc(=O)[nH]c2ccccc12)C1CCCCC1", "hERG current change (%, negative = inhibition) at 10uM": -7.86}
{"smiles": "CCN(CC(=O)Nc1ccc(NC(C)=O)cc1)C(=O)/C=C/c1cccs1", "hERG current change (%, negative = inhibition) at 10uM": 3.44}
{"smiles": "COC(=O)c1cnc2c(c(C)nn2C)c1OC", "hERG current change (%, negative = inhibition) at 10uM": 8.08}
{"smiles": "CCOC(=O)Cc1csc(NC(=O)c2ccncc2)n1", "hERG current change (%, negative = inhibition) at 10uM": 3.11}
{"smiles": "COc1ccc(S(=O)(=O)N2CCOCC2)cc1NS(=O)(=O)/C=C/c1ccccc1", "hERG current change (%, negative = inhibition) at 10uM": 13.6}
{"smiles": "O=C(/C=C/c1ccco1)NC(=S)Nc1nc(-c2ccc(Cl)cc2)cs1", "hERG current change (%, negative = inhibition) at 10uM": 12.2}
{"smiles": "CCCN(CCC)S(=O)(=O)c1ccc(NC(=O)c2cc(C(=O)OC)cc([N+](=O)[O-])c2)cc1", "hERG current change (%, negative = inhibition) at 10uM": 16.5}
{"smiles": "Cc1cc(C)n2nc(SCC(=O)NC3CCCCC3)nc2n1", "hERG current change (%, negative = inhibition) at 10uM": 1.68}
{"smiles": "Cc1ccc(C)c(N(CC(=O)NC(C)C)C(=O)CCC(=O)Nc2ccccn2)c1", "hERG current change (%, negative = inhibition) at 10uM": 2.45}
{"smiles": "COc1ccc(Cl)cc1C(=O)CSc1nnnn1C", "hERG current change (%, negative = inhibition) at 10uM": 9.82}
{"smiles": "Cc1ccc(C(=O)NCC(=O)OCC(=O)Nc2ccc3[nH]c(=O)[nH]c3c2)cc1", "hERG current change (%, negative = inhibition) at 10uM": 5.19}
{"smiles": "COc1ccc(C)cc1Nc1n[n+](-c2ccccc2)c(-c2cc([N+](=O)[O-])cc(OC)c2O)s1.[Cl-]", "hERG current change (%, negative = inhibition) at 10uM": 6.15}
{"smiles": "CCOc1ccccc1NC(=O)C(=O)NCCC1=CCCCC1", "hERG current change (%, negative = inhibition) at 10uM": 5.25}
{"smiles": "Cc1nc2cc(C(=O)N3CCN(C)CC3)ccc2n1C", "hERG current change (%, negative = inhibition) at 10uM": 15.2}
{"smiles": "Cc1ccn2cc(C(=O)Nc3ccccc3N3CCOCC3)nc2c1", "hERG current change (%, negative = inhibition) at 10uM": -40.5}
{"smiles": "CC(=O)c1sc(NC(=O)C=C(C)C)nc1C", "hERG current change (%, negative = inhibition) at 10uM": 4.69}
{"smiles": "CN(CC(=O)NCc1ccncc1)S(=O)(=O)c1ccccc1", "hERG current change (%, negative = inhibition) at 10uM": -4.15}
{"smiles": "CC1C(C#N)=C(N)OC2=C1C(=O)CC(C)(C)C2", "note": "(stereo not shown)", "hERG current change (%, negative = inhibition) at 10uM": 9.35}
{"smiles": "CCCCCOC(=O)CCN1C(=O)/C(=C2\\SC(=S)N(CCC(=O)OCCCCC)C2=O)SC1=S", "hERG current change (%, negative = inhibition) at 10uM": 11.8}
{"smiles": "Cc1ccc(S(=O)(=O)c2ccc(Cl)cc2)cc1S(N)(=O)=O", "hERG current change (%, negative = inhibition) at 10uM": -2.56}
{"smiles": "Cc1ccc(NC(=O)C(OC(=O)c2ccc(NC(N)=O)cc2)c2ccccc2)cc1Cl", "note": "(stereo not shown)", "hERG current change (%, negative = inhibition) at 10uM": -3.17}
{"smiles": "COC(=O)c1[nH]c2cc(C)ccc2c1NC(=O)CN1CCCc2ccccc21", "hERG current change (%, negative = inhibition) at 10uM": -25.3}
{"smiles": "CCOC(=O)Cc1csc(NC(=O)c2ccc(S(=O)(=O)N(CCOC)CCOC)cc2)n1", "hERG current change (%, negative = inhibition) at 10uM": -1.25}
{"smiles": "CC1=CC(=O)c2ccccc2C1=O", "hERG current change (%, negative = inhibition) at 10uM": -7.36}
{"smiles": "Cc1cc2nc3ccc(N(C)C)cc3nc2cc1N", "hERG current change (%, negative = inhibition) at 10uM": 0.339}
{"smiles": "Nc1c(C(=O)Nc2ccc(F)cc2)sc(=S)n1-c1ccccc1F", "hERG current change (%, negative = inhibition) at 10uM": 8.49}
{"smiles": "COc1ccc2c(c1)c(N=NC(N)=S)c(O)n2CC(=O)c1ccccc1", "hERG current change (%, negative = inhibition) at 10uM": 22.8}
{"smiles": "O=C(CCC(=O)Nc1ccccc1)NNS(=O)(=O)c1ccccc1[N+](=O)[O-]", "hERG current change (%, negative = inhibition) at 10uM": 19.6}
{"smiles": "COc1cc(NS(=O)(=O)c2ccc(NC(=S)NC(=O)/C=C/c3ccc(OC)c(OC)c3)cc2)ncn1", "hERG current change (%, negative = inhibition) at 10uM": 10}
{"smiles": "CSc1cccc(NC(=O)c2ccc(Cl)nc2)c1", "hERG current change (%, negative = inhibition) at 10uM": 1.68}
{"smiles": "COc1cc2c(cc1OC)C(c1cccc(OC)c1OC)CC(=O)N2", "note": "(stereo not shown)", "hERG current change (%, negative = inhibition) at 10uM": -33.5}
{"smiles": "COc1ccccc1N1CCN(C(=O)CC2NC3CCCCC3NC2=O)CC1", "note": "(stereo not shown)", "hERG current change (%, negative = inhibition) at 10uM": 4.6}
